This is an account of results in paper PMC4336329 (PLoS ONE, 2015).

Each structure is given as a SMILES string. About 2,200 (0.71%) of roughly 310,000 compounds showed an effect of 50% or more. The effect is printed as a negative number. Some of the results follow.

Chain of human ether-à-go-go-related gene (hERG) potassium channel (Q12809 whole entry, looked up): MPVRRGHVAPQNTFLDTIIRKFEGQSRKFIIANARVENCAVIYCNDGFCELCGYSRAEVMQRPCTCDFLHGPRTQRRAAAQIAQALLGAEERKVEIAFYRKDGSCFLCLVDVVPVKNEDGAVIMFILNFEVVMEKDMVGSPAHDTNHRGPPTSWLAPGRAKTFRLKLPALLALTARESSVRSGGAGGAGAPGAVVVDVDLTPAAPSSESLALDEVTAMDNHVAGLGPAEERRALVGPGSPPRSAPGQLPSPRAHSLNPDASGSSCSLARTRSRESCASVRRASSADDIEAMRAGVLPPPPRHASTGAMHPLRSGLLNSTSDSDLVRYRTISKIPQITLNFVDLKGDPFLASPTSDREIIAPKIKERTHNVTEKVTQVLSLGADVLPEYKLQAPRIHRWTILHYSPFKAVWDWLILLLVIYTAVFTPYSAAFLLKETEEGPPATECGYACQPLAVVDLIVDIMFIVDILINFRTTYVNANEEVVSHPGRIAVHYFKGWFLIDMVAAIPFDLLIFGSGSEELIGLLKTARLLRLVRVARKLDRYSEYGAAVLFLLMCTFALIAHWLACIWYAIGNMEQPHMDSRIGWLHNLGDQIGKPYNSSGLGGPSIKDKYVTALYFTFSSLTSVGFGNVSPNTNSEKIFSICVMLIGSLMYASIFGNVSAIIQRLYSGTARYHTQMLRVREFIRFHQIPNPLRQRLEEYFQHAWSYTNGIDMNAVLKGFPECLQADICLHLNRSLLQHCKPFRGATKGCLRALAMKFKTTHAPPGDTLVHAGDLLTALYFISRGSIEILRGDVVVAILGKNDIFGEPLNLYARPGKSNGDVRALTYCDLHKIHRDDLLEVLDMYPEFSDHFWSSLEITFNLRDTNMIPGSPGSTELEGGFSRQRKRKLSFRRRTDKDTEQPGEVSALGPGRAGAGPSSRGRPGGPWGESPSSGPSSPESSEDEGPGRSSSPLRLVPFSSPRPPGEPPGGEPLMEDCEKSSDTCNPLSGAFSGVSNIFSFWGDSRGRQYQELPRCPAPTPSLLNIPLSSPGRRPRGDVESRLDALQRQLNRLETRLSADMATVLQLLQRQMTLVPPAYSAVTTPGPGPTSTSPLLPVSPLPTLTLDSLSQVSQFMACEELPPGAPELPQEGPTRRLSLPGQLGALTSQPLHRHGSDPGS

The assay has as its target human ether-à-go-go-related gene (hERG) potassium channel (human, UniProt Q12809). Description: primary screen, population patch clamp on CHO cells stably expressing hERG.
On to `Cc1ccc(C(=O)COC(=O)CNC(=O)c2cccs2)cc1C`, for which the “hERG current change (%, negative = inhibition) at 1uM” value was 15.3%.

Regarding `CN(CCC1CCOCC1)C(=O)CC1C(=O)NCCN1C/C=C/c1ccccc1` (stereo not drawn), the “hERG current change (%, negative = inhibition) at 1uM” value is given as 11.7%.

In the case of `CCC(=O)OCC(=O)Nc1ncc(C(F)(F)F)cc1Cl`, the “hERG current change (%, negative = inhibition) at 1uM” value is 5.88%.

In the case of `Cc1cccc(C)c1OCC(O)CN.Cl.O` (stereo not drawn), the “hERG current change (%, negative = inhibition) at 1uM” value was determined as 10.5%.

For the molecule `CCc1nnc(NC(=O)c2ccc(S(=O)(=O)NCC(C)C)cc2)s1`, the “hERG current change (%, negative = inhibition) at 1uM” value is 9.59%.

Consider `COc1ccccc1N1CCN(c2nc3ccccc3nc2C(C#N)C(=O)OC(C)C)CC1` (stereo not drawn), for which the “hERG current change (%, negative = inhibition) at 1uM” value is on record as -5.03%.

With `COC(=O)c1[nH]c2cccc(OC)c2c1NC(=O)CCN1CCSCC1`, the “hERG current change (%, negative = inhibition) at 1uM” value is on record as 19.2%.

With `Cc1cccc(C)c1N1C(=O)CCC(C)(C)C1=O`, the “hERG current change (%, negative = inhibition) at 1uM” value worked out at 11.2%.

For `COc1ccc(CC(=O)OCC(=O)Nc2cccc(Cl)c2)cc1`, the “hERG current change (%, negative = inhibition) at 1uM” value was 14.2%.

For `O=C(COC(=O)CCCN1C(=O)c2ccccc2C1=O)Nc1cc(Cl)cc(Cl)c1`, the “hERG current change (%, negative = inhibition) at 1uM” value is reported as -1.99%.

Turning to `COCC(C)N=CC1=C(O)CC(C)(C)CC1=O` (stereo not drawn), the “hERG current change (%, negative = inhibition) at 1uM” value was found to be 12.9%.

Consider `c1ccc(CSc2nnc(-c3sccc3-n3cccc3)o2)cc1`, for which the “hERG current change (%, negative = inhibition) at 1uM” value came out at 2.04%.

Turning to `Cl.NC(=O)c1c(NC(=O)c2ccccc2)sc2c1CCN(Cc1ccccc1)C2`, the “hERG current change (%, negative = inhibition) at 1uM” value amounted to 8.64%.

Regarding `CNS(=O)(=O)c1cn(CC(=O)NCc2ccc(F)cc2)cc1S(=O)(=O)NC`, the “hERG current change (%, negative = inhibition) at 1uM” value was found to be 18.1%.

`S=c1[nH]nc(Cc2n[nH]c(=S)n2-c2ccccc2)n1-c1ccccc1`: the “hERG current change (%, negative = inhibition) at 1uM” value was 19.7%.

`O=C(NCC(=O)N1CCN(c2ccccc2O)CC1)c1ccc2ccccc2c1`: the “hERG current change (%, negative = inhibition) at 1uM” value is 7.74%.

Consider `C=CCOC(=O)C1=C(C)OC(N)=C(C#N)C1c1ccco1` (stereo not drawn), for which the “hERG current change (%, negative = inhibition) at 1uM” value turned out to be 17.6%.

In the case of `Cc1ccc(NC(=O)C2CCN(S(=O)(=O)c3ccc(Cl)c(C(F)(F)F)c3)CC2)nc1`, the “hERG current change (%, negative = inhibition) at 1uM” value is listed as 2.79%.

On to `COc1ccc(-c2cc(C(=O)N3CC(C)CC(C)C3)c3ccccc3n2)cc1` (stereo not drawn), for which the “hERG current change (%, negative = inhibition) at 1uM” value was 16.3%.

`COC(=O)c1cn(NC(=O)Cc2c(F)cccc2Cl)c(=O)c2ccccc12`: the “hERG current change (%, negative = inhibition) at 1uM” value stood at 1.62%.

Take `COc1ccc(N=Cc2c(O)n(-c3cccc(C)n3)c(=O)c3ccccc23)c(OC)c1`: the “hERG current change (%, negative = inhibition) at 1uM” value came to 7.46%.

Regarding `CCN(CC)CCNC(=O)c1nn(-c2ccc(C)cc2)c(=O)c2c1c1ccccc1n2C`, the “hERG current change (%, negative = inhibition) at 1uM” value is reported as -8.07%.

Regarding `Cl.O=C(c1ccc(F)cc1)C(CCCCCC(CN1CCOCC1)C(=O)c1ccc(F)cc1)CN1CCOCC1` (stereo not drawn), the “hERG current change (%, negative = inhibition) at 1uM” value was -14%.

As for `CCCCCn1c(S(=O)(=O)O)nc2ccccc21`, the “hERG current change (%, negative = inhibition) at 1uM” value is listed as 6.65%.

On to `CNC(=S)Nc1cc(S(=O)(=O)Nc2cc(Cl)ccc2Cl)ccc1N1CCCC1`, for which the “hERG current change (%, negative = inhibition) at 1uM” value amounted to 11.7%.

For `COC(=O)c1cc(NC(=O)C2CC=CCC2C(=O)O)cc(C(=O)OC)c1` (stereo not drawn), the “hERG current change (%, negative = inhibition) at 1uM” value was determined as 11.1%.

Consider `CCCCN(C)C(=O)c1ccc(S(=O)(=O)N2CCOCC2)cc1`, for which the “hERG current change (%, negative = inhibition) at 1uM” value came out at 13.5%.

Regarding `N#CC1=C(N)Oc2ccc3ccc(O)cc3c2C1c1cccnc1` (stereo not drawn), the “hERG current change (%, negative = inhibition) at 1uM” value amounted to 12.2%.

For the molecule `CCOc1ccc(CN2C(=O)c3ccccc3C2=O)cc1C(=O)NC1CC(C)(C)NC(C)(C)C1`, the “hERG current change (%, negative = inhibition) at 1uM” value was 12.4%.

Take `CN1CCN(C(=O)/C(=C/c2cn(S(=O)(=O)N(C)C)c3ccccc23)NC(=O)c2ccccc2F)CC1`: the “hERG current change (%, negative = inhibition) at 1uM” value stood at 9.45%.

With `O=C(N/N=C/c1c(Cl)[nH]c2ccccc12)c1sc2ccccc2c1Cl`, the “hERG current change (%, negative = inhibition) at 1uM” value is 12.7%.

As for `O=C(CN1CCN(S(=O)(=O)N2CCOCC2)CC1)Nc1cc(Cl)ccc1Cl`, the “hERG current change (%, negative = inhibition) at 1uM” value is recorded as -38.8%.

For the molecule `O=C(CSc1nncs1)NC(=O)NC1CCCC1`, the “hERG current change (%, negative = inhibition) at 1uM” value turned out to be 18.4%.

On to `COc1ccc(CSc2nc3ccccc3[nH]2)cc1`, for which the “hERG current change (%, negative = inhibition) at 1uM” value amounted to 4%.

On to `CCOC(=O)N1CCN(c2nc(C)cc(C(F)(F)F)n2)CC1`, for which the “hERG current change (%, negative = inhibition) at 1uM” value worked out at 11.2%.

Turning to `CCC(=O)Nc1cc(-c2nn(C)c(=O)c3ccccc23)ccc1OC`, the “hERG current change (%, negative = inhibition) at 1uM” value was found to be 1.7%.

For the molecule `COc1cc(/C=C/C(=O)Nc2ccc(C)cc2)cc(OC)c1OC`, the “hERG current change (%, negative = inhibition) at 1uM” value turned out to be 9.07%.

For `COc1ccc(NC(=O)N2CCc3ccccc3C2)cc1`, the “hERG current change (%, negative = inhibition) at 1uM” value is 17.1%.

Turning to `CC(CCc1ccccc1)NC(=O)CN1CCN(Cc2ccccc2)C1=O` (stereo not drawn), the “hERG current change (%, negative = inhibition) at 1uM” value is listed as -2.07%.

`COC(=O)c1ccc(NC(=O)COc2ccc(S(=O)(=O)N3CCCCC3)cc2)cc1`: the “hERG current change (%, negative = inhibition) at 1uM” value is reported as -0.608%.

Take `O=[N+]([O-])c1ccc(-c2cn3nc(-c4ccccc4)c(-c4ccccc4)nc3n2)cc1`: the “hERG current change (%, negative = inhibition) at 1uM” value worked out at 7.84%.

Regarding `CCn1c(C)nc2cc(C(=O)N/N=C/c3ccc(O)cc3)ccc21`, the “hERG current change (%, negative = inhibition) at 1uM” value came out at 13.5%.

For `O=C(CSCc1ccc(Cl)cc1)N/N=C/c1ccccc1`, the “hERG current change (%, negative = inhibition) at 1uM” value was 7.51%.

On to `COC(CNC(=O)[C@H](CSCc1ccccc1)N1Cc2ccccc2C1=O)OC`, for which the “hERG current change (%, negative = inhibition) at 1uM” value turned out to be 3.67%.

`CCOC(=O)[C@H]1[C@H]2COc3ccc(OC)cc3[C@@H]2N2C(=O)c3ccc(C)cc3NC(=O)[C@@]12C`: the “hERG current change (%, negative = inhibition) at 1uM” value was determined as 11.4%.
